We go through 60 sequences from publication PMC6451091.

The list shows a part of the results. For part of these data: At the low end of the ranking, values are background and their order means little. For part of these data: Measured with an extract: partners may take part in the binding.

Holding throughout (details): 20 mM HEPES pH 7.9, 100 mM NaCl, 1 mM DTT, 0.2 mg/mL BSA, 0.02% Triton X-100, 2% milk, 0.4 mg/mL salmon testes DNA; 1 h; temperature not stated; high values mean tight binding; double strand, one strand shown; sequences stand for … in GCCTAGCAC…GTGCTAGGTCTTGATTCGCTTGACGCTGCTG
In one assay the target is PU.1 (IVT) (UniProt P17947). Briefly: protein-binding microarray (PBM).
Assay [1] has as its target PU.1 (endogenous, THP-1 nuclear extract) (UniProt P17947). Nature of the assay: nuclear extract protein-binding microarray (nextPBM).
The target in assay [2] is T1, FLI1 (endogenous, THP-1 nuclear extract) (UniProt Q01543).
T1 sequence: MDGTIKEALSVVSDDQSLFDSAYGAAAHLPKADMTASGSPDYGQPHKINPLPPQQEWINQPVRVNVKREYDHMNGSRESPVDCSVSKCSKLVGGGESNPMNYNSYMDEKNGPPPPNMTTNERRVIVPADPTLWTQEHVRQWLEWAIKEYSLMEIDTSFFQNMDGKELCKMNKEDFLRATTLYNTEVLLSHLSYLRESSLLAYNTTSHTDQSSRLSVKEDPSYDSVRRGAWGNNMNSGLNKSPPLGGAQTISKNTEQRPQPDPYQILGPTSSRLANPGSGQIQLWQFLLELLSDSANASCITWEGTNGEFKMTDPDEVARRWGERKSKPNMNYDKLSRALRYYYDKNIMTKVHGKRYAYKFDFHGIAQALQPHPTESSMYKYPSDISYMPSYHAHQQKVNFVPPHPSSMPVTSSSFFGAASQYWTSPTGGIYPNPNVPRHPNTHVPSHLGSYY
Described as above.

With AGCAAAAGGAAGTGAAAAAT, the binding signal with PU.1 (IVT) came out at 2.86 z-score; in assay [1] it was 2.29 z-score; in assay [2] it was 2.51 z-score.
For the sequence AAAAACAGGAAGTGAGAATC, the figures for the binding signal (with PU.1 (IVT); in assay [1]; in assay [2]) were 8.18 z-score, 7.27 z-score and 5.49 z-score, respectively.
Turning to TTTTTGGGGAAGTGAGGTTC, the binding signal with PU.1 (IVT) came to 5.38 z-score; in assay [1], 5.87 z-score; in assay [2], 1.63 z-score.
On the same counts, the results for TAAGAGAGGAAGTGTAGCCT are 3.79 z-score, 3.77 z-score and 2.49 z-score.
The like results for TGAATCAGGAAGTCTAGGCA were, in that order, 3.78 z-score, 3.59 z-score and 2.62 z-score.
The like results for TGGCAGAGGAAGTGGCCATT were, in that order, 3.11 z-score, 3.05 z-score and 2.61 z-score.
As for TAAAGAGGGAAGTGGGAGCC, the binding signal in the assay with PU.1 (IVT) stood at 3.74 z-score; in assay [1], 4.56 z-score; in assay [2], 1.7 z-score.
With GGAAAGGGGAAGTCTACTGG, the binding signal with PU.1 (IVT) was 6.46 z-score; in assay [1], 6.83 z-score; in assay [2] it was 2.68 z-score.
As for GGGGAAAGGAAGTGCATAAA, the binding signal worked out at 2.18 z-score with PU.1 (IVT), 1.81 z-score in assay [1] and 2.51 z-score in assay [2].
The like results for CGAAAGGGGAAGTGCTAAAT were, in that order, 7.23 z-score, 7.1 z-score and 3.16 z-score.
TGAAAGAGGAAGTGCAACGA: the binding signal is 7.57 z-score with PU.1 (IVT), 7.37 z-score in assay [1] and 3.85 z-score in assay [2].
Regarding AGGAAGTGGAAGTGGGAGGA, the binding signal in the assay with PU.1 (IVT) turned out to be 2.81 z-score; in assay [1] it was 2.62 z-score; in assay [2], 5.54 z-score.
The like results for GAGGTGGGGAAGTGGGCGAG were, in that order, 2.83 z-score, 2.5 z-score and 1.12 z-score.
For the sequence GAAGAGAGGAAGTGACTCCC, the binding signal with PU.1 (IVT) was 5.07 z-score; in assay [1], 5.33 z-score; in assay [2], 3.23 z-score.
On the same counts, the results for GAGAAGAGGAACTAGGTCAA are 4.64 z-score, 5.1 z-score and 1.27 z-score.
As for AGCAAGAGGAAGTCAAGTAC, the binding signal in the assay with PU.1 (IVT) was found to be 4.55 z-score; in assay [1], 4.98 z-score; in assay [2] it was 2.59 z-score.
For CAATAAAGGAAGTGGAGACA, the binding signal in the assay with PU.1 (IVT) turned out to be 2.96 z-score; in assay [1], 3.37 z-score; in assay [2], 2.67 z-score.
On the same counts, the results for CTGTAGAGGAAGTGGATTAT are 3.87 z-score, 4.1 z-score and 2.91 z-score.
For the sequence GAAAAGGGGAAGTGAGGGAT, the values for the binding signal (with PU.1 (IVT); in assay [1]; in assay [2]) were 7.81 z-score, 7.2 z-score and 3.67 z-score, respectively.
On the same counts, the results for AGGCAGAGGAAGTGAGAATG are 3.09 z-score, 2.97 z-score and 2.53 z-score.
In the case of GAAATGGGGAAGTGGCCAGG, the binding signal with PU.1 (IVT) was found to be 6.49 z-score; in assay [1], 6.89 z-score; in assay [2] it was 2.68 z-score.
With CTAATGGGGAAGTGCCACAC, the binding signal stood at 4.33 z-score with PU.1 (IVT), 5.51 z-score in assay [1] and 1.65 z-score in assay [2].
On to AAAAAAAGGAACTGGCTCGA, for which the binding signal amounted to 4.34 z-score in the assay with PU.1 (IVT), 4.32 z-score in assay [1] and 1.29 z-score in assay [2].
Turning to GTCAAGAGGAACTACTGTGG, the values for the binding signal (in the assay with PU.1 (IVT); in assay [1]; in assay [2]) were 3.7 z-score, 3.22 z-score and 1.23 z-score, respectively.
As to GAGAGGAGGAAGTACTGTGG, the binding signal with PU.1 (IVT) came to 4.34 z-score; in assay [1] it was 5.06 z-score; in assay [2], 2.37 z-score.
Consider TAGAAGAGGAAGTGGCCAGC, for which the binding signal with PU.1 (IVT) came out at 5.83 z-score; in assay [1] it was 6.6 z-score; in assay [2] it was 3.24 z-score.
As to AAAAAAAGGAAGTGAGAGCT, the binding signal with PU.1 (IVT) came to 6.29 z-score; in assay [1], 6.55 z-score; in assay [2], 3.18 z-score.
For the sequence ACAAAGAGGAAGTGCAGATC, the binding signal amounted to 6.7 z-score with PU.1 (IVT), 6.92 z-score in assay [1] and 3.62 z-score in assay [2].
Turning to GGAAAGAGGAAGTGCAGTCC, the binding signal is 8.02 z-score in the assay with PU.1 (IVT), 7.27 z-score in assay [1] and 4.42 z-score in assay [2].
On to AAGTAGAGGAACTGTTAGCC, for which the binding signal in the assay with PU.1 (IVT) worked out at 1.95 z-score; in assay [1] it was 1.62 z-score; in assay [2], 0.786 z-score.
AGCAGGAGGAAGTGAGCTCC: the binding signal turned out to be 3.78 z-score with PU.1 (IVT), 4.43 z-score in assay [1] and 2.61 z-score in assay [2].
The like results for GAAAAGAGGAAGTCCCATAG were, in that order, 7.76 z-score, 7.32 z-score and 3.97 z-score.
Turning to TAAAAGAGGAAGTAGCCAAA, the binding signal with PU.1 (IVT) is 8.23 z-score; in assay [1], 7.19 z-score; in assay [2], 3.69 z-score.
CAAATGAGCAACTGATGCGG: the binding signal was -0.716 z-score in the assay with PU.1 (IVT), -0.331 z-score in assay [1] and -0.862 z-score in assay [2].
For the sequence CCAAAAGGGAAGTGGATGCT, the binding signal in the assay with PU.1 (IVT) stood at 4.98 z-score; in assay [1], 5.05 z-score; in assay [2], 2.58 z-score.
On to CAATTGAGGAAGTGGTGGGT, for which the binding signal with PU.1 (IVT) was determined as 6.98 z-score; in assay [1], 6.68 z-score; in assay [2], 3.19 z-score.
With GCCAGGAGGAAGTGGAAATG, the binding signal in the assay with PU.1 (IVT) was determined as 4.22 z-score; in assay [1] it was 4.53 z-score; in assay [2], 3.17 z-score.
CAAAAAGGGAAGTGGATTCT: the binding signal with PU.1 (IVT) turned out to be 6.79 z-score; in assay [1], 7 z-score; in assay [2], 2.93 z-score.
As for GAAAGGAGGAAGTGCAAAGA, the binding signal with PU.1 (IVT) came to 5.7 z-score; in assay [1], 6.47 z-score; in assay [2], 2.79 z-score.
Regarding AAAAAAAGGAACTGTCTAGA, the binding signal was 4.5 z-score with PU.1 (IVT), 4.14 z-score in assay [1] and 1.82 z-score in assay [2].
The like results for CCAAAGAGGAAGTCTCAAAA were, in that order, 5.42 z-score, 6.38 z-score and 2.53 z-score.
For TGAAAGAGGAAGTGTAACCA, the binding signal with PU.1 (IVT) came to 7.2 z-score; in assay [1], 7.12 z-score; in assay [2], 3.69 z-score.
Take CAAAAAGGGAAGTGGATGGT: the binding signal amounted to 6.54 z-score with PU.1 (IVT), 6.76 z-score in assay [1] and 2.79 z-score in assay [2].
The like results for AGGAGAGGGAAGTGGGAGGA were, in that order, 2.54 z-score, 2.72 z-score and 1.47 z-score.
Regarding GAAAGCAGGAAGTCCCATAG, the binding signal with PU.1 (IVT) was 3.5 z-score; in assay [1], 4.25 z-score; in assay [2] it was 3.44 z-score.
As to AAAATGAGGAAGTGTGATTA, the binding signal in the assay with PU.1 (IVT) was 7.8 z-score; in assay [1] it was 7.36 z-score; in assay [2], 3.52 z-score.
TCAACAAGGAAGTGATCCCT: the values for the binding signal (in the assay with PU.1 (IVT); in assay [1]; in assay [2]) were 2.95 z-score, 3.36 z-score and 1.92 z-score, respectively.
ACTTTGGGGAAGTGGGATTT: the binding signal in the assay with PU.1 (IVT) came out at 4.59 z-score; in assay [1], 4.8 z-score; in assay [2] it was 1.84 z-score.
Regarding GTGAAGAGGAAGTTTTCCTT, the binding signal is 5.34 z-score with PU.1 (IVT), 4.46 z-score in assay [1] and 2.82 z-score in assay [2].
Turning to GCAGAAAGGAAGTGGGTTAT, the binding signal in the assay with PU.1 (IVT) came to 2.38 z-score; in assay [1], 2.15 z-score; in assay [2], 3 z-score.
For the sequence ACAGAAAGGAACTGTGCCCC, the binding signal with PU.1 (IVT) worked out at 0.832 z-score; in assay [1], 0.817 z-score; in assay [2], 0.558 z-score.
Turning to GGAAAAAGGAAGTGAAAAAA, the binding signal was 5.95 z-score in the assay with PU.1 (IVT), 5.97 z-score in assay [1] and 3.07 z-score in assay [2].
Consider GTTTTGAGGAAGTCCAAACC, for which the binding signal is 5.5 z-score in the assay with PU.1 (IVT), 5.97 z-score in assay [1] and 2.14 z-score in assay [2].
For the sequence TGAATGAGGAAGTGGAGTTA, the binding signal in the assay with PU.1 (IVT) was 7.05 z-score; in assay [1] it was 6.96 z-score; in assay [2], 3.71 z-score.
On to CAAATAGGGAAGTGATAGAG, for which the binding signal with PU.1 (IVT) was determined as 6.72 z-score; in assay [1], 6.73 z-score; in assay [2] it was 2.64 z-score.
On the same counts, the results for GGAAAGAGGAAGTGACATGG are 8.2 z-score, 7.33 z-score and 4.43 z-score.
For the sequence AGAGAGAGGAAGTGATTACA, the binding signal in the assay with PU.1 (IVT) was found to be 4.98 z-score; in assay [1], 4.74 z-score; in assay [2], 2.99 z-score.
On the same counts, the results for GTAAAGGGGAAGTGAGTAAA are 6.16 z-score, 6.67 z-score and 3.06 z-score.
Take GGAAAGGGGAAGTGGGCACC: the binding signal with PU.1 (IVT) turned out to be 7.25 z-score; in assay [1] it was 6.91 z-score; in assay [2], 3.32 z-score.
For GTTTTGAGGAAGTGGGAAAA, the binding signal with PU.1 (IVT) amounted to 6.51 z-score; in assay [1] it was 6.49 z-score; in assay [2] it was 3.21 z-score.
